# ChEMBL document CHEMBL1201862, “PubChem BioAssay data set” (2004)
# Tested on: NCI-H322M
# Experiment: NCI tumour cell line growth inhibition, 48 h
row,SMILES,GI50
1,Cc1cccc(Nc2cnc(N)nc2N)c1,inactive: > 100 µM
2,Nc1nc(Cl)cc(NCC2(O)CCC2)n1,inactive: > 100 µM
3,O=[N+]([O-])/C=C/c1cc2ccccc2[nH]1,inactive: 17.1 µM
4,COC1=CC2=NCCc3n[nH]c(c32)C1=O,inactive: 27.4 µM
5,NC(=O)NCCSC1CCCCC1O (stereo not drawn),inactive: > 100 µM
6,COC(c1ccsc1)C(C#N)(C#N)/N=C/c1ccsc1 (stereo not drawn),inactive: 12.9 µM
7,O=C1CC[C@H]2CNC(=O)C[C@H]2C1,inactive: > 100 µM
8,CC(=O)OC1C/C(C)=C/CCC(C)/C=C/C2(C)CCC(C(C)(C)O)C12 (stereo not drawn),inactive: 67.3 µM
9,Cc1ccc2c(=O)c(-c3n[nH]c(=S)s3)c[nH]c2n1,inactive: > 100 µM
10,Cc1cccc2c1Oc1cc(Cl)ccc1C2NC(=O)CCN1CCN(CCO)CC1 (stereo not drawn),inactive: 17.9 µM
11,O=C1CSC(c2ccccc2O)N1c1ccc(Oc2ccc(Cl)cc2)c(Cl)c1 (stereo not drawn),inactive: 20.9 µM
12,O=C(O)[C@@H]1[C@H](C(=O)O)[C@H](C(=O)O)C[C@@H]1C(=O)O,inactive: > 100 µM
13,O=C1c2ccccc2OCC1/C=N/O (stereo not drawn),inactive: > 100 µM
14,Cc1ccc([C@H]2CC(=O)C[C@H](c3ccc(C)cc3)C23C(=O)c2ccccc2C3=O)cc1,inactive: 33.5 µM
15,C=CC1ON(Cc2ccccc2)CCc2cc(OC)c(OC)cc21 (stereo not drawn),inactive: > 100 µM
16,COc1ccc2nccc(C3=CCC4CCN(C(=O)c5ccccc5)C3C4)c2c1 (stereo not drawn),inactive: > 100 µM
17,O=[N+]([O-])c1cccc(C2N3CCCCC3[C@@H]3c4[nH]c5ccccc5c4CCN23)c1 (stereo partly drawn),inactive: 17.5 µM
18,COC1=C(OC)C23CCc4ccc(OC)c(O)c4C2(CCN3)CC1=O (stereo not drawn),inactive: > 100 µM
19,Brc1ccc(C2=NCSC(c3ccc(Br)cc3)=N2)cc1,inactive: 26.2 µM
20,CC[C@H]1C=CCC[C@@]2(C[C@@H]3CC[C@H]4[C@@H](C(=O)OCCCCCCCCCCCCCCCC(=O)N(CCCNC(C)=O)C[C@H](CCNC(C)=O)OC(C)=O)[C@@]5(CCC[C@@H](C)O5)NC(=[N+]34)N2)O1,inactive: 1.71 µM
21,COc1ccccc1N1CCN(CCCCNC(=O)c2ccc([N+](=O)[O-])o2)CC1,inactive: 9.53 µM
22,CCOc1cccc2ccc[n+](CC)c12,inactive: 99.1 µM
23,C/C(=N\Oc1cc(Cl)ncn1)c1ccccn1,inactive: 40.6 µM
24,COc1ccc(/N=N/c2ccc3oc(=O)c(C(=O)Nc4ccccc4)cc3c2)cc1,inactive: 6.32 µM

row,SMILES,GI50
1,COc1ccc2c(c1)C(=O)C(=O)c1cc(O)c(OC)c(OC)c1-2,inactive: 7.89 µM
2,COc1ccc2c(c1OC)C(=O)c1cnccc1C2=O,inactive: > 100 µM
3,Cc1c(C(=O)N2CCN(c3ccc([N+](=O)[O-])cc3)CC2)[n+]([O-])c2cc(Cl)c(Cl)cc2[n+]1[O-],inactive: 32.4 µM
4,CCCCCCCCCCCCCCCCCCNc1ccn(C2OC(COP(=O)(O)OCC3CCC(n4cnc5c(=O)[nH]cnc54)O3)C(O)C2O)c(=O)n1 (stereo not drawn),inactive: 52.6 µM
5,COc1ccc(/C=C2\CCC(C)C3=C2N=c2s/c(=C/c4cccc(Br)c4)c(=O)n2C3c2ccc(OC)c(OC)c2)cc1OC (stereo not drawn),inactive: > 100 µM
6,O=C(O)[C@H]1NC[C@H]2C(Br)=NO[C@@H]12,inactive: > 100 µM
7,CCCCCCCCCCCCCCCCCCNc1ccn(C2OC(COP(=O)(O)OCC3OC(n4cc(C)c(=O)[nH]c4=O)CC3F)C(O)C2O)c(=O)n1 (stereo not drawn),inactive: 9.44 µM
8,O=C(CN1C(=O)c2ccccc2C1=O)OCC1CCCN2CCCCC12 (stereo not drawn),inactive: > 100 µM
9,COc1ccc(/C=C2\S/C(=N/Nc3nc(-c4ccccc4)cs3)NC2=O)cc1OC,inactive: 29.9 µM
10,COc1cc(C23OCC(Cc4cc5c(cc42)OCO5)C3CO)cc(OC)c1OC (stereo not drawn),inactive: 6.21 µM
11,NC(=O)c1ncn(C2OC(CO)C(O)C2O)c1NC=O (stereo not drawn),inactive: > 100 µM
12,COc1cc(C2C(C(=O)Nc3ccccc3)=C(C)NC(C)=C2C(=O)Nc2ccccc2)ccc1O,inactive: 55.3 µM
13,C=CC(Br)(CBr)CCC(Cl)C(C)C (stereo not drawn),inactive: 6.92 µM
14,CSc1c(C#N)c(N)n(-c2ccc(C)cc2)c(=O)c1C#N,inactive: > 100 µM
15,COC(=O)C1Cc2ccc3c(c2C1=O)CCCC3 (stereo not drawn),inactive: > 100 µM
16,COC(=O)c1nc2n(n1)-c1ccccc1C(=O)N(Cc1ccccc1)C2,inactive: 36.1 µM
17,COc1ccccc1C(=O)NO,inactive: > 100 µM
18,CC1(C)COC2(OC1)C1=NS(=O)(=O)CC13CCC2C3(C)C (stereo not drawn),inactive: > 100 µM
19,O=c1[nH]c(=O)n(C2CC(O)C(CO)O2)cc1I (stereo not drawn),inactive: > 100 µM
20,Nc1ccc(-c2nc3ccc(F)cc3s2)cc1Cl,inactive: > 87.7 µM
21,Cn1cnc([N+](=O)[O-])c1SC1=NCCS1,inactive: > 100 µM
22,CC(Br)C(=O)NN1C2=C(Nc3ccccc31)c1cccc3cccc2c13 (stereo not drawn),inactive: 91 µM
23,COc1cc2c3c(c4cc(OC)c(OC)cc4c2cc1OC)[C@H](O)[C@@H]1CCCN1C3,active: < 0.0301 µM
24,O=c1c2ccccc2n2nnc3ccc(NCCNCCO)c1c32,inactive: 1.36 µM

#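 Each compound was tested at five concentrations against cells in 96-well plates for 48 hours. At the GI50, growth is halved.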 Activity calls are given as the source filed them. Cut-off read from the data, not from the text of the source: active = GI50 up to about 1.1 µM and inactive = higher.
